Test results reported in PubChem BioAssay AID540267 (National Center for Advancing Translational Sciences (NCATS), 2011).
About 530 (0.16%) of roughly 340,000 compounds were called active. Inconclusive means that the source gave no clear call. Such entries were picked first, then a sample of the others. Rule as the data show it: active = activity change below about -80%; inconclusive = between about -30% and that limit; inactive = weaker than that.

Experiment: Small Molecules that selectively kill Giardia lamblia: qHTS;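 also: parasites exposed to compound for two days anaerobically before the ATP read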
Conditions: Giardia lamblia trophozoite viability; at 7.66 µM; hits give low values
Method in brief: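 Media and compound were dispensed first, then trophozoites at 100 cells/well; plates sat 48 hrs at 37 deg C without oxygen before ATP luminescence reagent was added and read after 15-30 min at room temperature.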
% is scaled to controls: 0 for no effect and ±100 for the full control effect.

Structure (SMILES)	activity change
COc1ccc(/C=C/c2c(-c3ccccc3OC)sc3ccccc23)cc1OC	inconclusive: -43.9% [inhibitor]
COc1ccccc1CC(=O)Nc1c[nH]c(=O)[nH]c1=O	inconclusive: -43.9% [inhibitor]
O=C(COC(=O)C1CC1)NCc1ccccc1	inconclusive: -36.4% [inhibitor]
NC(=O)/C(N=Nc1ccccc1)=N/Nc1ccccc1	inconclusive: -34.1% [inhibitor]
Cc1ccc2ccc3c(c2n1)NS(=O)(=O)c1ccccc1-3	inactive: -5.37%
FC(F)(F)c1cc(NC2CCCCC2)ccn1	inactive: -1.44%
CC(C)(C)c1ccc(C(=O)Nc2ccc(NC(=O)c3ccco3)cc2)cc1	inactive: 3.82%
CCC(=O)Nc1cccc(NC(=S)NC(=O)c2ccccc2)c1	inconclusive: -39.1% [inhibitor]
COc1ccc2[nH]c(=O)c(CN(CCN3CCCC3)C(=O)Nc3ccccc3Cl)cc2c1	inactive: 4.18%
CN(Cc1ccco1)c1ncnc2ccc(-c3ccoc3)cc12	inconclusive: -30.6% [inhibitor]
COC(=O)c1cc(N=C(N)N=C(N)N)cc(C(=O)OC)c1	inconclusive: -33.2% [inhibitor]
COc1ccc(C(=O)N2CCN(Cc3ccccc3)CC2)cc1[N+](=O)[O-]	inconclusive: -33.2% [inhibitor]
O=C(Nc1ccc(NC(=O)c2cccs2)cn1)c1ccco1	inconclusive: -42.6% [inhibitor]
CC(=O)N1CC=CC1(CC(C)C)C(=O)NCc1cc(F)cc(C(F)(F)F)c1 (configuration not stated)	inconclusive: -33.2% [inhibitor]
Nc1nc(Nc2ccc(Cl)cc2)nc2ccccc12	inconclusive: -49.6% [inhibitor]
O=C(Nc1nnc(S(=O)(=O)N2CCCCC2)s1)c1cccc(Br)c1	inactive: 16.9%
O=C(Nc1nc2c(F)cc(F)cc2s1)c1ccc([N+](=O)[O-])o1	active: -86.2%
CC(C)(C)NC(=O)COC(=O)c1ccc(Cl)nc1	inconclusive: -31.5% [inhibitor]
COc1ccc(NC(=O)c2ccc([N+](=O)[O-])cc2[N+](=O)[O-])c(OC)c1	inconclusive: -56.2% [inhibitor]
CC(OC(=O)C1CC2CCCC(C1)C2=O)C(=O)Nc1cccc([N+](=O)[O-])c1 (configuration not stated)	inconclusive: -41.1% [inhibitor]
COC(=O)c1ccc(NC(=S)Nc2ccccc2)cc1	inactive: -5.1%
COc1ccc(CNC(=O)Cn2nc(Cc3cccnc3)c3ccccc3c2=O)cc1	inconclusive: -31.3% [inhibitor]
Cc1ccc(OCC(=O)NC(=S)Nc2ccccn2)c(Br)c1	inconclusive: -43.7% [inhibitor]
Cc1ccc(N2C(=O)C(F)(F)C2c2ccccc2)cc1 (configuration not stated)	inconclusive: -37% [inhibitor]
CCOC(=O)N/N=C\c1ccc([N+](=O)[O-])o1	active: -94.6%
COc1ccccc1NC(=O)CCc1nnc2ccc(NCc3ccco3)nn12	inconclusive: -33.2% [inhibitor]

Structure (SMILES)	activity change
CCOC(=O)c1[nH]c(CSc2nnnn2-c2ccccc2C)c(C(=O)OCC)c1C	inconclusive: -38.8% [inhibitor]
CN1C(=O)S/C(=C/c2cccn2-c2cccc(C(=O)O)c2)C1=O	inconclusive: -31% [inhibitor]
O=C(O)C1=CC[C@@H](c2ccc(Cl)cc2)N(S(=O)(=O)c2ccc(Cl)cc2)[C@H]1c1ccc(F)cc1	inconclusive: -35.9% [inhibitor]
O=C(Nc1ccc2c(c1)OCCO2)c1ccc(Br)o1	inconclusive: -47.5% [inhibitor]
Cc1cc(S(=O)(=O)N2CCN(c3ccccc3C)CC2)ccc1F	inconclusive: -35.5% [inhibitor]
O=C(O)c1ccc2c(c1)C(=O)/C(=C\c1ccco1)C2=O	inconclusive: -33.3% [inhibitor]
CS/C(N)=N/N=C/c1cc(C)ccc1O	inconclusive: -37.2% [inhibitor]
Cn1cc(CN2CCC(C(O)c3cccs3)CC2)c(-c2cccc(Cl)c2)n1 (configuration not stated)	inconclusive: -31.1% [inhibitor]
Cc1sc2ncnc(NCC(O)c3ccccc3)c2c1C (configuration not stated)	inactive: 5.95%
CC(=O)O[C@H]1C(=O)[C@]2(C)[C@H]([C@H](OC(=O)c3ccccc3)[C@]3(O)C[C@H](OC(=O)[C@H](O)[C@@H](NC(=O)c4ccccc4)c4ccccc4)C(C)=C1C3(C)C)[C@]1(OC(C)=O)CO[C@@H]1C[C@@H]2O	inconclusive: -40.2% [inhibitor]
CCOc1ccc(C(=O)Nc2cc(C)ccn2)cc1	active: -87.7%
O=C(COC(=O)CNC(=O)C1CCCCC1)NC1CCCC1	inactive: 9.13%
O=C(c1ccc([N+](=O)[O-])s1)N1CCN(c2ccccn2)CC1	inconclusive: -55.9% [inhibitor]
COc1ccc2[nH]c(=O)c(CNc3ccc(C)cc3C)cc2c1	inactive: -2.1%
O=S(=O)(c1ccccc1)N(CC1CO1)c1cc(Cl)ccc1Cl (configuration not stated)	inconclusive: -41.3% [inhibitor]
CCS(=O)(=O)Nc1ccc(-c2cc(-c3ccccc3)c3cc(C)ccc3n2)cc1	inconclusive: -36.1% [inhibitor]
Cc1ccc(NC(=O)CN(C)C(=O)/C=C/c2ccc3c(c2)OCO3)cc1	inconclusive: -36.8% [inhibitor]
Cc1ccccc1-c1nnc(SC(C)C(=O)NC2CCCC2)o1 (configuration not stated)	inactive: -28.7%
NC(=O)c1c(NC(=O)c2ccccc2)sc2c1CCN(Cc1ccccc1)C2	inconclusive: -31.2% [inhibitor]
Cc1ccccc1S(=O)(=O)N1[C@@H](c2ccc(F)cc2)C(C(=O)O)=CC[C@H]1c1ccc(Cl)cc1	inconclusive: -30.3% [inhibitor]
N/C(=N/OC(=O)c1ccccc1Cl)c1ncc([N+](=O)[O-])s1	inconclusive: -50.8% [inhibitor]
COCCNc1cc(NCCOC)c([N+](=O)[O-])cc1[N+](=O)[O-]	inconclusive: -65.1% [inhibitor]
CCN(Cc1ccncc1)C(=O)CC1C(=O)NCCN1Cc1ccc(F)c(F)c1 (configuration not stated)	inconclusive: -48.1% [inhibitor]
CCCC12CN3CC(C)(CN(C1)C3c1ccc([N+](=O)[O-])o1)C2=O (configuration not stated)	active: -87.1%
COc1ccccc1-c1nnc(NC(=O)c2ccccc2F)o1	inconclusive: -32.5% [inhibitor]
Cc1ccc(-c2cc(C(=O)N3CCC(C)CC3)c3ccccc3n2)cc1	inactive: 3.2%

Structure (SMILES)	activity change
Cc1cc(C)c(-n2[nH]nnc2=S)c(C)c1	inconclusive: -45.9% [inhibitor]
CCN(CC)C(=O)c1[nH]cnc1C(=O)N[C@@H](CC(C)C)C(=O)OCc1ccccc1	inconclusive: -38% [inhibitor]
Cc1ccc(C(=O)COC(=O)CNC(=O)c2ccc(Br)o2)cc1[N+](=O)[O-]	inconclusive: -32.7% [inhibitor]
Cc1ccc(/C=N/NC(=O)c2ccncc2)cc1	inconclusive: -35.4% [inhibitor]
Cc1ccc(NC(=O)c2nc(S(=O)(=O)Cc3ccccc3)ncc2Cl)cc1	inactive: -1.89%
O=S1OC(c2ccccc2)c2cc(Cl)ccc21 (configuration not stated)	inconclusive: -34.4% [inhibitor]
COc1ccccc1N1CCN(C(=O)c2ccc([N+](=O)[O-])s2)CC1	inconclusive: -40.5% [inhibitor]
COC(=O)C(Cc1ccc(O)cc1)NC(=O)c1ccc2c(c1)OCCO2 (configuration not stated)	inconclusive: -42.3% [inhibitor]
Cc1cccc(C)c1N=C1C(=O)Nc2ccccc21	inconclusive: -36.9% [inhibitor]
O=C(NNC(=O)c1ccccc1O)c1ccc(-c2ccc([N+](=O)[O-])cc2)o1	inconclusive: -33.8% [inhibitor]
Cc1nnc(SCC(=O)NC2CCC(C)CC2)s1 (configuration not stated)	inconclusive: -35.2% [inhibitor]
CC(C)(C)c1ccc(C(=O)Nc2cnccn2)cc1	inconclusive: -38.3% [inhibitor]
N#CCC(=O)Nc1ccc(C(=O)NCCC(c2ccccc2)c2ccccc2)cc1	inactive: -10%
O=C1c2sc3nc4ccccc4n3c2C(=O)N1c1ccccc1Cl	inactive: 21.6%
Cc1cccc(C(=O)O/N=C(\N)c2ccc(Cl)cc2)c1	inconclusive: -31.8% [inhibitor]
COc1cccc(-c2nc(CS(=O)CC(=O)NCc3ccccc3)c(C)o2)c1 (configuration not stated)	inconclusive: -30.5% [inhibitor]
O=C(NCc1ccc(Cl)cc1)C1CCN(S(=O)(=O)c2cc([N+](=O)[O-])ccc2Cl)CC1	inconclusive: -43.7% [inhibitor]
CCOC(=O)c1ccc(NC(=O)CSc2nc3sc(C(=O)O)c(C)c3c(=O)[nH]2)cc1	inconclusive: -33.6% [inhibitor]
CN(Cc1ccc(F)cc1)C(=O)c1cccc(NS(=O)(=O)c2ccccc2)c1	inactive: -10.3%
Cc1cc(C2=NNC(=NC3CC3)SC2)c(C)n1-c1ccccc1	inconclusive: -39.9% [inhibitor]
Cc1nn(C)c(C(=O)N/N=C/c2ccc(Br)cc2)c1Cl	inactive: -12.4%
CCOc1ccc(NC(=O)C(C)NC(=O)c2ccccc2Cl)cc1S(=O)(=O)N1CCCC1 (configuration not stated)	inactive: 10.2%
O=C1c2cccc3cccc(c23)C(=O)N1CC1CCN(S(=O)(=O)c2ccc(F)cc2)CC1	inconclusive: -32.7% [inhibitor]
O=C(CCn1nc(-c2ccccc2)c2ccccc2c1=O)NN1CCOCC1	inconclusive: -31.3% [inhibitor]
CCNC(=O)NC(=O)c1csc([N+](=O)[O-])c1	inconclusive: -64.8% [inhibitor]
